# Test results as given in patent US12564635B2, “Long-lived gadolinium based tumor targeted imaging and therapy agents” (WISCONSIN ALUMNI RESEARCH FOUNDATION, priority 2015, dated 2026).
# Tested on: flank U87 (human glioma) tumor
# Assay: In vivo MRI of flank U87 xenograft mice
# Conditions: FIG. 14
smiles,measurement,value
"CNC[C@H](O)[C@@H](O)[C@H](O)[C@H](O)CO.O=C([O-])CN1CCN(CC(=O)[O-])CCN(CC(=O)O)CCN(CC(=O)[O-])CC1.[Gd+3] [DOTAREM®, reference compound]","tumor to muscle ratio compared to baseline scans, versus Gd-DO3A-404","less striking, and significant only at a couple of early time points"
